Assay results published in the supplement of paper PMC11417369.
± gives the standard deviation of the averaged measurements. The list shows a part of the results.

The sequences below were run on PfAP2-LT AP2 domain (GST-tagged) (assay: gcPBM binding intensity (ln(normalized median fluorescence intensity)); higher = stronger DNA binding).
Summary of the method: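 Each value is the highest Masliner-normalised natural-log median intensity across replicate spots of either orientation of a probe. The probes were primer-extended double-stranded 36-bp intergenic genomic sequences on an Agilent 4 × 180k array, alongside negative controls, exposed for 1 h to GST-tagged P. falciparum DNA-binding domains expressed in E. coli. Bound protein was picked up with Alexa488 anti-GST antibody and scanned at 488 nm.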
For “TAAATATCAAAACACACACACAAAAGTGAATAAATA [CACACA_site3762]”, the “gcPBM binding intensity (ln)” value was 9.62 ± 0.36.
With “TTATTATATTAAAATTGTACTTGCTTTCAATATGAT [XGTACX_site5305]” the “gcPBM binding intensity (ln)” value was 8.51 ± 0.48.
For “TTATAATATTATAAAATAACATTTATTAATTATTGG [CACACA_negctrl_site1794]”, the “gcPBM binding intensity (ln)” value was 8.26 ± 0.44.
In the case of “TAAACGTTATATAGTGCATGTCATATTTTATTATAT [TGCATGCA_site935]”, the “gcPBM binding intensity (ln)” value is reported as 8.8 ± 0.35.
“TTCCCTCCTCAAAATTGTACTAGAATAATAACATAA [XGTACX_site8765]” was tested, and the “gcPBM binding intensity (ln)” value was 8.3 ± 0.4.
In the case of “TACACGCTAAAATACACACACACACCCACATATATA [CACACA_site4153]”, the “gcPBM binding intensity (ln)” value is reported as 10.2 ± 0.11.
In the case of “TTTTTTAAACATATTATGTGTATTACATAGTTATGC [XGTACX_negctrl_site596]”, the “gcPBM binding intensity (ln)” value is reported as 8.73 ± 0.42.
“AAAAAAAAAAAAAACACACACACAAGAGTATATAAA [CACACA_site6580]” was tested, and the “gcPBM binding intensity (ln)” value was 9.73 ± 0.49.
With “TTATATATTTTTTTTTGTACATAGAAGAGGGAAAAA [XGTACX_site2178]” the “gcPBM binding intensity (ln)” value was 8.21 ± 0.5.
“ATGAATTTATTACATTGTACATTTTTAAAAGGTTAC [XGTACX_site124]” was tested, and the “gcPBM binding intensity (ln)” value was 8.59 ± 0.49.
In the case of “TATACATACATACATACACACACACCGATATATACA [CACACA_site8184]”, the “gcPBM binding intensity (ln)” value is reported as 9.89 ± 0.11.
For “TTCCAAAAAATTATTACACACATATGGGCACATATA [CACACA_site679]”, the “gcPBM binding intensity (ln)” value was 8.96 ± 0.37.
“ACAAAAAAACATGAAACACACACAAATATATATATA [CACACA_site8566]” was tested, and the “gcPBM binding intensity (ln)” value was 9.56 ± 0.39.
“TGCCTATTTTGGATGTGTACACATATATATATTTAT [XGTACX_site6741]” was tested, and the “gcPBM binding intensity (ln)” value was 9.19 ± 0.42.
For “ACGCTAATTATGTGCACACAAATTAAAGGTCTACAA [CACACA_site147]”, the “gcPBM binding intensity (ln)” value was 9.58 ± 0.34.
For “AATGTTATTTGTTTATCACACATTAGGATGTTTATA [CACACA_site5710]”, the “gcPBM binding intensity (ln)” value was 8.93 ± 0.39.
In the case of “ATTCTATAATATAAGAGTACTTATTTTTTTTAATTT [XGTACX_site7671]”, the “gcPBM binding intensity (ln)” value is reported as 8.4 ± 0.47.
For “TATAAAATTAAACAAAGTACTAGACATATATATAGA [XGTACX_site3247]”, the “gcPBM binding intensity (ln)” value was 8.8 ± 0.4.
With “TATATTATAAACATATGTACATATGTATAAATACAT [XGTACX_site722]” the “gcPBM binding intensity (ln)” value was 8.77 ± 0.32.
In the case of “ATTATTAATATTATATGTACGCACTATATCAAGGCT [XGTACX_site6468]”, the “gcPBM binding intensity (ln)” value is reported as 8.83 ± 0.51.
In the case of “AACATATATATATACACACACATATATATATGAAAT [CACACA_site279]”, the “gcPBM binding intensity (ln)” value is reported as 9.54 ± 0.24.
TATACCAATGAATGAGTGCAAAGAAGATAAGGAAAA was tested, and the “gcPBM binding intensity (ln)” value was 9.01 ± 0.49.
“AAGGTATTTATAACTACACACTTATTTATAACCTAA [CACACA_site6194]” was tested, and the “gcPBM binding intensity (ln)” value was 8.7 ± 0.43.
For “ACTTATTGTGGTTTTGCATGTAGCATTTTTACATAC [TGCATGCA_site247]”, the “gcPBM binding intensity (ln)” value was 9.19 ± 0.44.
“AATAAAATGAAATGAAATAAAAAAAAAAAAAAAATG [TGCATGCA_negctrl_site305]” was tested, and the “gcPBM binding intensity (ln)” value was 8.56 ± 0.49.
With “AGCTATGTATTCTACACACACATACAGACATATATA [CACACA_site3428]” the “gcPBM binding intensity (ln)” value was 9.46 ± 0.38.
In the case of “TTTGCATTTCTTAATTGTACTTAAAAAAAAAATAAT [XGTACX_site758]”, the “gcPBM binding intensity (ln)” value is reported as 8.07 ± 0.32.
For “AATCATTTTATTATCCTAACAAAAAAAAAATATATT [CACACA_negctrl_site115]”, the “gcPBM binding intensity (ln)” value was 8.27 ± 0.47.
In the case of “ACGATGCATTAATCTGCACACCACAACAAAACGTTT [CACACA_site899]”, the “gcPBM binding intensity (ln)” value is reported as 9.07 ± 0.33.
In the case of “ACAACGCGTTAAATGTGTACATATTTATAAGTATAT [XGTACX_site8777]”, the “gcPBM binding intensity (ln)” value is reported as 9.21 ± 0.52.
With “TATATATATATATATATTGAAATTTATAATAATATT [TGCATGCA_negctrl_site407]” the “gcPBM binding intensity (ln)” value was 9.115 ± 0.05.
With “AACATAGAAACGTTATGTACATATTGAAGGATATTA [XGTACX_site6015]” the “gcPBM binding intensity (ln)” value was 9.05 ± 0.43.
With “AAATATTTATACTATACACACCCAATTTAAAAAAAA [CACACA_site6669]” the “gcPBM binding intensity (ln)” value was 8.82 ± 0.3.
“ATTTTTTTATGTACACAAAAAAAAAAAAAAATTTAA [CACACA_negctrl_site1028]” was tested, and the “gcPBM binding intensity (ln)” value was 8.41 ± 0.36.
“AAAAGAATATAAAGATACATTGTGATATGGGACAAA [CACACA_negctrl_site405]” was tested, and the “gcPBM binding intensity (ln)” value was 8.87 ± 0.49.
In the case of “GAAATAATTTCATATACACACATATACATACATACA [CACACA_site1358]”, the “gcPBM binding intensity (ln)” value is reported as 9.16 ± 0.35.
With TATATATATATTGAAGTGCAAAATACTGTACGTAAT the “gcPBM binding intensity (ln)” value was 8.94 ± 0.43.
“TTAATTCTACTTATTACACACATATTAATCAAAAAT [CACACA_site1478]” was tested, and the “gcPBM binding intensity (ln)” value was 8.71 ± 0.29.
In the case of “TATATATATATAAACAGTACACAAATTGTAAATAAA [XGTACX_site8268]”, the “gcPBM binding intensity (ln)” value is reported as 9.04 ± 0.49.
In the case of “TTTTCATTTTTCTTTACACACATATATTTATTTATA [CACACA_site7119]”, the “gcPBM binding intensity (ln)” value is reported as 8.97 ± 0.39.
For “GTTAATATTTACTACACACACTTAAAATATGTATAT [CACACA_site4194]”, the “gcPBM binding intensity (ln)” value was 9.15 ± 0.31.
With “ATATTATAATTAAAACGTACGTATTTATGAATTCAT [XGTACX_site1047]” the “gcPBM binding intensity (ln)” value was 8.73 ± 0.42.
In the case of “TACATAAATTAAAACACACACACACTAAAAAAAAAA [CACACA_site7130]”, the “gcPBM binding intensity (ln)” value is reported as 9.79 ± 0.4.
In the case of “TATTAATTAAACCATACACACATAATTTTTTTATAA [CACACA_site843]”, the “gcPBM binding intensity (ln)” value is reported as 8.66 ± 0.4.
With “ATGGAAGGAAACAATAAAAAAAAAAAAAAATATATA [XGTACX_negctrl_site594]” the “gcPBM binding intensity (ln)” value was 8.51 ± 0.58.
“TTTTTTATTTGACAAGCACACACTTAAATATATATA [CACACA_site3358]” was tested, and the “gcPBM binding intensity (ln)” value was 8.85 ± 0.38.
CATTTAAAGGACAAGCTGCACTTACAAAATAAAAAA was tested, and the “gcPBM binding intensity (ln)” value was 8.57 ± 0.55.
For “AAATGAGTATTCATATGTACACAAATAAAAAATTAA [XGTACX_site2968]”, the “gcPBM binding intensity (ln)” value was 8.8 ± 0.45.
For “AGGTTAAAAATAAATACACACATTTTATGTCTGTAT [CACACA_site996]”, the “gcPBM binding intensity (ln)” value was 9.06 ± 0.4.
In the case of “TTTTTTTTTTAATAAAGTACATATAAATTACCTAAT [XGTACX_site4434]”, the “gcPBM binding intensity (ln)” value is reported as 8.15 ± 0.45.
“ACTATACAGTTATACACACACATATATATATAATAT [CACACA_site310]” was tested, and the “gcPBM binding intensity (ln)” value was 9.46 ± 0.32.
“ATCTTTGGAAATTTATGTACTTATATTTATATTGTA [XGTACX_site6606]” was tested, and the “gcPBM binding intensity (ln)” value was 8.77 ± 0.49.
In the case of “ATTTCTAGTTTAAGATGTACTTTAATAAAAATTATT [XGTACX_site4820]”, the “gcPBM binding intensity (ln)” value is reported as 8.38 ± 0.43.
“AAATATCAACAAAAATGTACAAATGTAAAAGAATAT [XGTACX_site4676]” was tested, and the “gcPBM binding intensity (ln)” value was 9.22 ± 0.4.
For “TTAAAAAAAAGACACACACACATACACATATTTATA [CACACA_site7535]”, the “gcPBM binding intensity (ln)” value was 9.94 ± 0.35.
In the case of “TATATATATATATATACACACATATATATAAATATA [CACACA_site2035]”, the “gcPBM binding intensity (ln)” value is reported as 9.41.
In the case of “CACAAAAGTAAGCACGCACACACAACCTGAAATAAA [CACACA_site166]”, the “gcPBM binding intensity (ln)” value is reported as 9.59 ± 0.44.
